Experimental data from article PMC4336329 (PLoS ONE, 2015).
Hit rate of the full screen: of about 310,000 compounds, about 2,200 (0.71%) showed an effect of 50% or more. Effects have a minus sign here. The list shows a part of the results.

molecular target: human ether-à-go-go-related gene (hERG) potassium channel (human, UniProt Q12809); test: primary screen, population patch clamp on CHO cells stably expressing hERG
Sequence (Q12809 whole entry, looked up): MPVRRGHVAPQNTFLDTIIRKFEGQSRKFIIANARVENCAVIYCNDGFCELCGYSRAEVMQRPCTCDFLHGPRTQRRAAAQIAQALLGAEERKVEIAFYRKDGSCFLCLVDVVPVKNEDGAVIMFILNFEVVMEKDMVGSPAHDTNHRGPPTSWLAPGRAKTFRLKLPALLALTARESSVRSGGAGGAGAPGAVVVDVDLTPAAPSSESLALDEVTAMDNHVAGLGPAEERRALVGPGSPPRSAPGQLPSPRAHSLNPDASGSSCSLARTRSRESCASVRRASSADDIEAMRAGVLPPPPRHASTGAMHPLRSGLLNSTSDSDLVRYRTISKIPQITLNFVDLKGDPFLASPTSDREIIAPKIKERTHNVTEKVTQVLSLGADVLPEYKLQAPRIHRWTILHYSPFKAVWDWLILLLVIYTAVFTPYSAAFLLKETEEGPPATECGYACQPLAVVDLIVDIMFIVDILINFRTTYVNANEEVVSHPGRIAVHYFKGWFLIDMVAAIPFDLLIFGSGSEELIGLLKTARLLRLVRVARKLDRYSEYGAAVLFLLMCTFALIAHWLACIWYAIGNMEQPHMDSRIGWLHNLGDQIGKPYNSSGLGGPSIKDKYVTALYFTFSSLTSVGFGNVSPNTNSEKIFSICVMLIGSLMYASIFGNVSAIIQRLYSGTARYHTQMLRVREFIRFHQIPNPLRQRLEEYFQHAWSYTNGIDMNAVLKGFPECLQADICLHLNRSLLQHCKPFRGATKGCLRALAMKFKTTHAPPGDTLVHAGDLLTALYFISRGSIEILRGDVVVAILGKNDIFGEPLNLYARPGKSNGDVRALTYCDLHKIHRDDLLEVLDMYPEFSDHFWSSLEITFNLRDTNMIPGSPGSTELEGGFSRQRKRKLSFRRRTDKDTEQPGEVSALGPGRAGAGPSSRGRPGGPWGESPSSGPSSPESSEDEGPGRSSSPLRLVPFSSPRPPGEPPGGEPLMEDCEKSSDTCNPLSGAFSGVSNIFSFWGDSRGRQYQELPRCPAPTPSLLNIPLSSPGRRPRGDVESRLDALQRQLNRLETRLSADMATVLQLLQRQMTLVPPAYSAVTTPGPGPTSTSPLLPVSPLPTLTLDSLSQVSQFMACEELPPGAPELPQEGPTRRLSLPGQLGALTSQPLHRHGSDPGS

SMILES | hERG current change (%, negative = inhibition) at 1uM [%]
COc1ccc(OC)c(NC(=O)C2CCCN(S(C)(=O)=O)C2)c1 (stereo not shown) | 10.9
O=C(/C=C/c1ccc([N+](=O)[O-])cc1)Nc1cccc(C(=O)Nc2ccccc2C(=O)O)c1 | 19.4
CCOC(=O)c1c(C)nc(-c2ccccc2)nc1N | 14.9
C=CCOc1ccc(C(=O)O)cc1Cl | -1.94
CN1CCN(c2ccc(C(=O)NC3CCCCC3)cc2[N+](=O)[O-])CC1 | -1.35
O=C(c1ccccc1-c1ncc[nH]1)N1CCc2c([nH]c3ccccc23)C1c1ccccn1 (stereo not shown) | 3.09
Cc1ccc(-n2c(O)c(C=Nc3ccc(Br)cn3)c(=O)[nH]c2=O)cc1 | 13.3
CCOC(=O)C1(c2nc(N)cs2)COC(=O)C1 (stereo not shown) | 17
CC(C)C(=O)Nc1ccc(S(=O)(=O)Nc2ccccn2)cc1 | 8.46
COc1ccccc1NC(=O)Cc1nnc(SCC(=O)NC2CCCCC2)n1C | 13.8
CCOC(=O)c1ccc(NC(=O)CSc2nc(C)cc(=O)[nH]2)cc1 | 15.1
CCOC(=O)C1=C(C)N(C)C(=O)NC1c1ccc(C)s1 (stereo not shown) | 10.7
Cc1cc(NS(=O)(=O)c2ccccc2)c(C)c(Cl)c1O | 5.98
COC(=O)c1ccccc1NC(=O)c1ccccc1SC | 0.355
CC1CC(=O)N(CC(=O)Nc2cccc(F)c2)c2ccccc2S1(=O)=O (stereo not shown) | 9.68
COc1ccc2nc(SCC(=O)Nc3nccs3)[nH]c2c1 | 7.33
O=C(COc1ccccc1-c1ccccc1)NCc1ccco1 | 6.99
CCn1nnnc1SCC(=O)Nc1cccc(NC(C)=O)c1 | 3.23
COc1ccc(C2NC(=S)NC3=C2CCc2ccccc23)cc1OC (stereo not shown) | 8.09
O=C(Cn1c(=O)oc2cc(S(=O)(=O)N3CCCC3)ccc21)NCc1ccc(F)cc1 | 5.55
CCOC(=O)c1[nH]c2c(c1-c1ccccc1)C(=O)CC(c1ccc(Cl)cc1)C2 (stereo not shown) | 8.49
Cl.Cn1nnc2c(N3CCCCC3)nccc21 | -0.481

SMILES | hERG current change (%, negative = inhibition) at 1uM [%]
CCOC(=O)c1cnc2c(C)c(Cl)ccc2c1N1CCOCC1.Cl | 10.1
CCN1/C(=C/c2cccc[n+]2C)Sc2ccc(OC)cc21.[I-] | -18.4
Cc1ccc2nc(CSc3nnc(-c4ccncc4)n3C)cc(=O)n2c1 | 8.52
O=C(Cc1c(F)cccc1Cl)NCCCn1ccnc1 | -9.03
CCC1C(=O)Nc2ccccc2N1C(=O)COc1ccccc1 (stereo not shown) | 4.42
COCCNC(=O)c1cc2c(-c3ccccc3F)nn(C)c2s1 | 18.6
CCOC(=O)N1CCC(NC(=O)c2cc(C)c3c(C)nn(-c4ccccc4)c3n2)CC1 | -0.198
CCc1nnc(NC(=O)CCN2C(=O)c3ccccc3S2(=O)=O)s1 | 14.8
CC1(C)CC2CC(C)(CN2S(=O)(=O)c2cccc(C(=O)OCC(N)=O)c2)C1 (stereo not shown) | 13.8
Cl.O=C(NCC(c1cccs1)N1CCOCC1)c1ccccc1NS(=O)(=O)c1ccc(Cl)c([N+](=O)[O-])c1 (stereo not shown) | 9.55
COc1cccc(CC(NC(C)=O)C(=O)NC2CCN(C(=O)c3ccc(Cl)cc3)CC2)c1OC (stereo not shown) | 2.02
Cc1ccsc1CN(C)C(=O)c1cc(S(=O)(=O)N2CCOCC2)ccc1N1CCCC1 | -7.19
CC(C)(C)N(NC(=O)OCc1ccccc1)C(=O)c1ccccc1 | 9.07
COc1ccc(C(=O)C2CCN(C(=O)c3ccc(F)cc3)CC2)cc1 | 2.02
Cc1ccc(-c2noc(CSc3nnc(Cc4cccs4)n3-c3ccccc3)n2)cc1 | 2.97
CC1=C(C#N)C(c2ccc(O)cc2)C2=C(CC(C)(C)CC2=O)N1 (stereo not shown) | 18.9
NC(=O)c1ccsc1NC(=O)COC(=O)CSc1ccc(Cl)cc1 | 7.07
O=C(N/N=C/c1cccnc1)c1cc2ccccc2cc1O | 12.2
CCN1CCN(C2=C(Cl)C(=O)N(Cc3ccccc3)C2=O)CC1 | -9
COc1ccc(Cl)cc1NS(=O)(=O)c1cccc(C(=O)NC2CCC(O)CC2)c1 (stereo not shown) | -5.1
COc1ccc2nc(SCC(=O)NCC(F)(F)F)[nH]c2c1 | 8.79
O=C(C1=C[C@H](c2ccc3c(c2)OCO3)C[C@H](OCc2ccc(CO)cc2)O1)N1CCCCCCC1 | 12.7

SMILES | hERG current change (%, negative = inhibition) at 1uM [%]
CCCCn1[nH]c(-c2ccccc2)cc1=O | 7.2
CC(C)Oc1ccc(S(=O)(=O)N2CCOCC2)cc1NC(=O)Cc1cccs1 | 8.47
COCCn1nnnc1C(c1ccccc1)N1CCN(c2ccccc2)CC1.Cl (stereo not shown) | -9.2
O=C(N/N=C/c1cccnc1)c1ccc(Cl)c(Cl)c1 | 10.2
CC1(C)Cc2c(cnn2-c2cccc(F)c2)C(NC(=O)C2CCOCC2)C1 (stereo not shown) | -5.8
CC1CCCN(C(=O)C2CCN(CCCc3ccccc3)CC2)C1.O=C(O)C(=O)O (stereo not shown) | -3.59
CC(=O)c1sc(N/N=C\c2ccc(N(C)C)cc2)nc1C | 17.6
Cc1nc2ccccc2c(=O)n1NC(=O)/C=C/c1ccccc1 | -0.535
COc1ccc(-c2cnc(N)n2CC2CCCO2)cc1 (stereo not shown) | 10.3
O=C(c1cc(Cl)cc(Cl)c1)N1CCN(c2cc(C(F)(F)F)nc3ccccc23)CC1 | 12.3
CCO[C@H]1OC(C(=O)N2CCOCC2)=C[C@@H](c2ccccc2)[C@@H]1CCCO | 9.41
CN1CCN(C(=O)c2ccc3c(=O)n(Cc4ccco4)c(=S)[nH]c3c2)CC1 | 2.56
O=C1c2cccnc2C(Nc2ccc(Cl)cc2)N1Cc1cccs1 (stereo not shown) | 6.55
COc1ccc2[nH]c(C)c(CCNC(=S)Nc3ccccc3OC)c2c1 | 10.4
Cc1ccc(S(=O)(=O)NC(=O)Nc2nc(-c3ccc(F)c(F)c3)cs2)cc1 | 16.1
Cc1ccc(Nc2nc(-c3sc(NC(=O)c4ccccc4)nc3C)cs2)cc1 | 6.04
Cc1ccc(S(=O)(=O)N2CCCCC2)cc1C(=O)c1nccn1C | 2.93
N#Cc1ccccc1NCc1ccccc1 | 14.6
Cn1cnc2ccc([N+](=O)[O-])cc2c1=O | 9.91
CC12CN3CC(C)(CN(C1)C3c1ccccc1Cl)C2O (stereo not shown) | -5.32
Cc1ccc(-c2ccc(/C=C/C(=O)c3ccccc3)o2)cc1 | 2.63
CC(=O)Nc1ccc2[nH]ccc2c1 | 4.88

SMILES | hERG current change (%, negative = inhibition) at 1uM [%]
Cc1occc1C(=O)N/N=C/C=C\c1ccccc1[N+](=O)[O-] | -0.373
COc1ccc(OCCNC(=O)Nc2cc(F)c(F)cc2Cl)cc1 | 0.57
CCn1cc(C(=O)N2CCN(c3ccccn3)CC2)c(=O)c2cc(S(=O)(=O)N3CCC(C)CC3)ccc21 | -7.95
O=C(CCc1nc2ccccc2c(=O)[nH]1)NNC(=O)c1ccccc1Cl | 0.0164
CCNC(=O)CCn1nc(-c2ccc(Cl)cc2)c2ccccc2c1=O | 0.219
COC(=O)Cn1nc(C)c2ccccc2c1=O | 4.81
Cc1nc(N2CCOCC2)nc(N2CCN(c3ccccc3)CC2)c1[N+](=O)[O-] | 11.2
NC(=O)CSc1ccc(Br)cc1 | 4.93
Cc1ccccc1C(=O)NNC(=O)C(C)N1C(=O)c2ccccc2C1=O (stereo not shown) | 6.49
CC(=O)N1CCN(C(=O)CCc2cc(C(C)(C)C)c(O)c(C(C)(C)C)c2)CC1 | 20.1
O=C(N/N=C/c1nn(-c2ccccc2)cc1-c1ccc(Cl)cc1)c1ccncc1 | 18.8
CCO.C[C@H]1c2cccc(O)c2C(O)=C2C(=O)[C@]3(O)C(O)=C(C(N)=O)C(=O)[C@@H](N(C)C)[C@@H]3[C@@H](O)[C@@H]21.Cl.O | 8.42
CS(=O)(=O)N(CC(=O)N1CCc2ccccc2C1)Cc1ccc(F)cc1 | 6.99
CCCCN(C)CCNC(=O)CN1C(=O)CSc2ccc(S(=O)(=O)N3CCCC3)cc21 | 14.5
Cc1cc(NS(=O)(=O)c2ccc(Cl)cc2)nn1CC(=O)NCc1ccco1 | 11.8
CCOc1ccc(N2C(=O)C3C(C2=O)C3(c2ccccc2)c2ccccc2)cc1 (stereo not shown) | 6.77
Cc1ccccc1C(=O)N1CCC(C(=O)NCCc2ccc(S(N)(=O)=O)cc2)CC1 | 14
CCS(=O)(=O)c1nc(S(=O)(=O)c2ccc(Cl)cc2)c(NCCCN2CCCC2=O)s1 | 17.5
Cc1cc(C)c(NC(=O)c2ccc3c(c2)C(=O)N(Cc2cccnc2)C3=O)c(C)c1 | 2.74
COCCn1c(Cc2ccccc2)nnc1SCC(=O)N(C)C | 5.65
CCOC(=O)c1[nH]cnc1C(=O)O | 5.03
Cc1cc(C(=O)OCC(=O)c2ccccc2)c2ccccc2n1 | 15.2
